# Measured values: paper PMC3335838
# These are yes or no findings as the source states them, for the method shown. Some entries that bind do so weakly or less than the wild type. Tags and fused reporters may be left off the sequences shown.
# T1: DRB4 (Double-stranded RNA Binding protein 4), full length, yeast two-hybrid fusion (Arabidopsis) (UniProt Q8H1D4)
# T1 sequence: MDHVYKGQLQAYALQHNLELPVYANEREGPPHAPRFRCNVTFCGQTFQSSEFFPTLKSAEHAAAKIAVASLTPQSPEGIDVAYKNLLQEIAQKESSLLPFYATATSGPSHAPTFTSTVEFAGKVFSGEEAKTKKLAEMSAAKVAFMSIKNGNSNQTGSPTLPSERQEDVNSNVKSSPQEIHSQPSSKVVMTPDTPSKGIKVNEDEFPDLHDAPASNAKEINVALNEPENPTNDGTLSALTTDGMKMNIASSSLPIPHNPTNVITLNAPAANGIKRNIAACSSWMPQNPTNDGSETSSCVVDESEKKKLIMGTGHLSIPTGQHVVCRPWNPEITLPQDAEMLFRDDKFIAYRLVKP
# T2: APC10/DOC1, yeast two-hybrid fusion (Arabidopsis) (UniProt Q9ZPW2)
# T2 sequence: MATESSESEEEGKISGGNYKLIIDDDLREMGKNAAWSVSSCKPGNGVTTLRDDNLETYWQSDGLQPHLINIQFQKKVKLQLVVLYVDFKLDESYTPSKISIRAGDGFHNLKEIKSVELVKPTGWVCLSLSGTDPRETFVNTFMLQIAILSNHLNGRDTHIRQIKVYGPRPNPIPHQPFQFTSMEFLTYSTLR
# B1: CCS52A2, yeast two-hybrid fusion (protein, UniProt Q8VZS9 1-475)
# chain: MEEDESTTPKKKSDSQLNLPPSMNRPTVSLESRINRLIDSNHYHSPSKPIYSDRFIPSRSGSNFALFDLASSSPNKKDGKEDGAGSYASLLKTALFGPVTPEKSDVVNGFSPSGNIFRFKTETQRSLNLYPPFDSDVVSGVSPSPVKSPRKILRSPYKVLDAPALQDDFYLNLVDWSAQNVLAVGLGNCVYLWNACSSKVTKLCDLGVDETVCSVGWALRGTHLAIGTSSGTVQIWDVLRCKNIRTMEGHRLRVGALAWSSSVLSSGSRDKSILQRDIRTQEDHVSKLKGHKSEICGLKWSSDNRELASGGNDNKLFVWNQHSTQPVLRFCEHAAAVKAIAWSPHHFGLLASGGGTADRCIRFWNTTTNTHLNCVDTNSQVCNLVWSKNVNELVSTHGYSQNQIIVWKYPTMSKLATLTGHSYRVLYLAVSPDGQTIVTGAGDETLRFWNVFPSPKSQSRESEIGALSFGRTTIR
# B2: CCS52B, yeast two-hybrid fusion (protein, UniProt Q8LPL5 1-481)
# chain: MASPQSTKTGLNLPAGMNQTSLRLETFSSSFRGISSLSSPSKSTCSDRFIPCRSSSRLHAFDLQDKEPTTPVKEGGNEAYSRLLKSELFGSDFASPLLSPAGGQGSASSPMSPCTNMLRFKTDRSNSSPSSPFSPSILGNDNGHSSDSSPPPKPPRKVPKTPHKVLDAPSLQDDFYLNVVDWSSQNVLAVGLGTCVYLWTASNSKVTKLCDLGPNDSVCSVQWTREGSYISIGTSHGQVQVWDGTQCKRVRTMGGHQTRTGVLAWNSRILSSGSRDRNILQHDIRVQSDFVSKLVGHKSEVCGLKWSHDDRELASGGNDNQLLVWNNHSQQPILKLTEHTAAVKAITWSPHQSSLLASGGGTADRCIRFWNTTNGNQLNSIDTGSQVCNLAWSKNVNEIVSTHGYSQNQIMLWKYPSMSKVATLTGHSMRVLYLATSPDGQTIVTGAGDETLRFWNVFPSVKMQTPVKDTGLWSLGRTQIR
# B3: APC10/DOC1, yeast two-hybrid fusion (protein, UniProt Q9ZPW2 1-192)
# chain: T2 sequence
# B4: CDC20-4, yeast two-hybrid fusion (protein, UniProt Q4PSE4 1-444)
# chain: MDSGMRATCTVPEHFLPRKLSKQNLDRFIPNRSAKDFDFANYALTQGSKRNLDEVTSASRKAYMTQLAVVMNQNRTRILAFRNKPKSLLSTNHSDSPHQNPKPVKPRRYIPQNSERVLDAPGLRDDFSLNLLDWGSANVLAIALGDTVYLWDASSGSTSELVTIDEDKGPVTSINWTQDGLDLAVGLDNSEVQLWDCVSNRQVRTLRGGHESRVGSLAWDNHILTTGGMDGKIVNNDVRIRSSIVETYLGHTEEVCGLKWSESGNKQASGGNDNVVHIWDRSLASSKQTRQWLHRFEEHTAAVRALAWCPFQASLLATGGGVGDGKIKFWNTHTGACLNSVETGSQVCSLLWSQSERELLSSHGFTQNQLTLWKYPSMSKMAELNGHTSRVLFMAQSPNGCTVASAAGDENLRLWNVFGEPPKTTKKAASKKYPELFSHVNSLR
# B5: CDC20-1, yeast two-hybrid fusion (protein, UniProt Q9SZA4 1-457)
# chain: MDAGMNNTSSHYKTQARCPLQEHFLPRKPSKENLDRFIPNRSAMNFDYAHFALTEGRKGKDQTAAVSSPSKEAYRKQLAETMNLNHTRILAFRNKPQAPVELLPSNHSASLHQQPKSVKPRRYIPQTSERTLDAPDIVDDFYLNLLDWGSANVLAIALDHTVYLWDASTGSTSELVTIDEEKGPVTSINWAPDGRHVAVGLNNSEVQLWDSASNRQLRTLKGGHQSRVGSLAWNNHILTTGGMDGLIINNDVRIRSPIVETYRGHTQEVCGLKWSGSGQQLASGGNDNVVHIWDRSVASSNSTTQWLHRLEEHTSAVKALAWCPFQANLLATGGGGGDRTIKFWNTHTGACLNSVDTGSQVCSLLWSKNERELLSSHGFTQNQLTLWKYPSMVKMAELTGHTSRVLYMAQSPDGCTVASAAGDETLRFWNVFGVPETAKKAAPKAVSEPFSHVNRIR
# B6: CDC20-3, yeast two-hybrid fusion (protein, UniProt Q9S7H3 1-442)
# chain: MDSDTCTVPDHFLPRKLSKQNLDRFIPNRSAMDFDFANYALTQGRKRNVDEITSASRKAYMTQLAVVMNQNRTRILAFRNKPKALLSSNHSDSPHQNPKSVKPRRYIPQNSERVLDAPGLMDDFYLNLLDWGSANVLAIALGDTVYLWDASSGSTSELVTIDEDKGPVTSINWTQDGLDLAVGLDNSEVQLWDFVSNRQVRTLIGGHESRVGSLAWNNHILTTGGMDGKIVNNDVRIRSSIVGTYLGHTEEVCGLKWSESGKKLASGGNYNVVHIWDHRSVASSKPTRQWLHRFEEHTAAVRALAWCPFQATLLATGGGVGDGKIKFWNTHTGACLNSVETGSQVCSLLWSQRERELLSSHGFTQNQLTLWKYPSMSKMAELNGHTSRVLFMAQSPNGCTVASAAGDENLRLWNVFGEPPKTTKKAASKNYLELFSHVNSLR
# B7: CDC20-2, yeast two-hybrid fusion (protein, UniProt Q9S7I8 1-447)
# chain: MDAGLNRCPLQEHFLPRKNSKENLDRFIPNRSAMNFDYAHFALTEERKGKDQSATVSSPSKEAYRKQLAETMNLNHTRILAFRNKPQAPVELLPSNHSASLHQQPKSVKPRRYIPQTSERTLDAPDIVDDFYLNLLDWGSANVLAIALDHTVYLWDASTGSTSELVTIDEEKGPVTSINWAPDGRHVAVGLNNSEVQLWDSASNRQLRTLKGGHQSRVGSLAWNNHILTTGGMDGLIINNDVRIRSPIVETYRGHTQEVCGLKWSGSGQQLASGGNDNVVHIWDRSVASSNSTTQWLHRLEEHTSAVKALAWCPFQANLLATGGGGGDRTIKFWNTHTGACLNSVDTGSQVCSLLWSKNERELLSSHGFTQNQLTLWKYPSMVKMAELTGHTSRVLYMAQSPDGCTVASAAGDETLRFWNVFGVPETAKKAAPKAVAEPFSHVNRIR
# B8: CCS52A1, yeast two-hybrid fusion (protein, UniProt Q8L3Z8 1-483)
# chain: MEEEDPTASNVITNSNSSSMRNLSPAMNTPVVSLESRINRLINANQSQSPSPSSLSRSIYSDRFIPSRSGSNFALFDLSPSPSKDGKEDGAGSYATLLRAAMFGPETPEKRDITGFSSSRNIFRFKTETHRSLNSFSPFGVDDDSPGVSHSGPVKAPRKVPRSPYKVLDAPALQDDFYLNLVDWSAQNVLAVGLGNCVYLWNACSSKVTKLCDLGAEDSVCSVGWALRGTHLAVGTSTGKVQIWDASRCKRTRTMEGHRLRVGALAWGSSVLSSGSRDKSILQRDIRCQEDHVSKLAGHKSEVCGLKWSYDNRELASGGNDNRLFVWNQHSTQPVLKYSEHTAAVKAIAWSPHVHGLLASGGGTADRCIRFWNTTTNTHLSSIDTCSQVCNLAWSKNVNELVSTHGYSQNQIIVWKYPTMSKIATLTGHTYRVLYLAVSPDGQTIVTGAGDETLRFWNVFPSPKSQNTDSEIGSSFFGRTTIR
# B9: DRB3, yeast two-hybrid fusion (protein, UniProt Q9LJF5 1-359)
# chain: MYKNQLQELAQRSCFSLPSYTCTREGPDHAPRFKASVNFNGEIFESPTYCSTLRQAEHSAAEVALSALSSKGPSKSLTARVLDETGIYKNLLQETAHRAGLDLPVYTSVRSGPGHIPTFSCTVELAGMSFNGESAKTKKQAEKNAAIAAWFSLRKMPRLDPLRGEEKEQEIVARVLSRFRPKEVKRREPNQSRRRTVIRTIRQNTTTTTTTTGDLLCEKLRSINLYTNEASSSSPPPQRFWPSRTNLTQEQSKVKSLLEKCQEYAEKKQSLDDPKPEMRIKTSSPSPLSSSVERNCYSKLLPFPSFVLNHQKLAPAVHIRSVIPVCSAPPPKPNPNPNSSPFITRELGNGSQEKKSLPN
# B10: DRB5, yeast two-hybrid fusion (protein, UniProt Q8GY79 1-393)
# chain: MYKNQLQELAQRSCFNLPSYTCIREGPDHAPRFKASVNFNGEIFESPTYCSTLRQAEHAAAEVSLNVLSSRVPSKSLTAKILDETGIYKNLLQETAHRAGLDLPMYTSVRSGSCHFPGFSCTVELAGMTFTGESAKTKKQAEKNAAIAAWSSLKKMSSLDSQDEEKEQEAVARVLSRFKPKEVRRRETTNQWRRRTSQQDSNKDLLIERLRWINLLTNQASSSSSTSTPNQHKNSSFISLIPPPPPPKSSKILPFIQQYKDRSSQEAKTETATEMINSKAKVNETSTRLSKQMPFSDMNRYNFVGGCSVNPYSLAPAVQMRSVIPVFAAPPPKPNPNLNPSSLSSSVNEFTSSNNSCSVLNTPGLGGQEKKNLTREMIKLGSESRILDQTHDS
# B11: DRB2, yeast two-hybrid fusion (protein, UniProt Q9SKN2 1-434)
# chain: MYKNQLQELAQRSCFNLPSYTCIREGPDHAPRFKATVNFNGEIFESPQYCSTLRQAEHSAAEVALNALSNRGPSHSLAARILDETGVYKNLLQEIAQRVGAPLPRYTTFRSGLGHQPVFTGTVELAGITFTGDPAKNKKQAEKNAAMAAWSSLKQLAKETSSSMPEPENIDELEQVIIARALINYRIKENIGTGSSSSAPVPFAKKFFMQNLRPTSPQPSPATTSRILPFICPKQPSRSSRSSLAATSGIDRIMAAALESRSYQRPQQRFANPPYVPMRQFRSQCHGMAPPVTIRTAVPVFSAPPMPPPPCTNNTQLPSSVYVPSLMRTAPPVRIAPPVTIRTAVPVFASAPPVRIRTAVKPTVEAGETRISSVQEKESIPVLPDSLEIGVEGSTITITDCEKTASKETERAEFKDSSKGEPETARERLENLKI
# B12: DRB1, yeast two-hybrid fusion (protein, UniProt O04492 1-419)
# chain: MTSTDVSSGVSNCYVFKSRLQEYAQKYKLPTPVYEIVKEGPSHKSLFQSTVILDGVRYNSLPGFFNRKAAEQSAAEVALRELAKSSELSQCVSQPVHETGLCKNLLQEYAQKMNYAIPLYQCQKVETLGRVTQFTCTVEIGGIKYTGAATRTKKDAEISAGRTALLAIQSDTKNNLANYNTQLTVLPCEKKTIQAAIPLKETVKTLKARKAQFKKKAQKGKRTVAKNPEDIIIPPQPTDHCQNDQSEKIETTPNLEPSSCMNGLKEAAFGSVETEKIETTPNLEPPSCMNGLKEAAFGSVETEKIETTPNLEPPSCMNGLKEAAFGSVETEKIETTPNLEPSSCMNGLKEAAFGSVETEKIETTPNLEPPSCMNGLKEAAFGSVETEKIETTPNLESSSCMSGLKEAAFGSVETEASHA
# Biological target: T1, DRB4 (Double-stranded RNA Binding protein 4), full length, yeast two-hybrid fusion (Arabidopsis)
# Assay: two-hybrid; pair-wise, cross-mating of S. cerevisiae PJ69-4a and PJ69-4 alpha; diploids on SD-LW, interactions selected on -LWA; 28°C for 3 days (Figure 2)
row,binding,Binder
1,no binding,B1
2,no binding,B2
3,binds,B3
4,no binding,B4
5,no binding,B5
6,no binding,B6
7,no binding,B7
8,no binding,B8

# Biological target: T2, APC10/DOC1, yeast two-hybrid fusion (Arabidopsis)
# Assay: as above
row,binding,Binder
1,no binding,B9
2,no binding,B10
3,no binding,B11
4,no binding,B12
